# This is one part of the list. Most values come without repeats; read them as rough.
# How the values were obtained:
# [1] = system: IMR-32; experiment: drug sensitivity score (DSS), single drug with vehicle (DSS (score)); higher = more cytotoxic; extreme values may be limits of the assay; settings: 72 h; co-treatment: vehicle (DMSO)
# [2] = system: SK-N-AS; experiment: as above; settings: 72 h; co-treatment: vehicle (DMSO)
# [3] = system: SK-N-AS; experiment: drug sensitivity score (DSS) in combination with SL-176 (DSS (score)); higher = more cytotoxic; extreme values may be limits of the assay; settings: 72 h; co-treatment: SL-176 11.2 uM (IC25 in IMR-32)
# [4] = system: IMR-32; experiment: as above; settings: 72 h; co-treatment: SL-176 11.2 uM (IC25 in IMR-32)
# [5] = system: SK-N-AS; experiment: drug sensitivity score (DSS) in combination with GSK2830371 (DSS (score)); neuroblastoma lines; SL-176 and GSK2830371 are WIP1 inhibitors; higher = more cytotoxic; extreme values may be limits of the assay; settings: 72 h; co-treatment: GSK2830371 at IC25 in IMR-32
# [6] = system: IMR-32; experiment: as above; settings: 72 h; co-treatment: GSK2830371 at IC25 in IMR-32
# 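For drug sensitivity score (DSS) in combination with GSK2830371 in this document: neuroblastoma cells in 384-well plates, each compound at five concentrations, luminescence read-out, DSS derived from fitted concentration-response curve combining IC50 with minimum and maximum inhibition.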
# 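For drug sensitivity score (DSS) in combination with SL-176 in this document: cells in 384-well plates, luminescence read-out, each screening drug at five concentrations, DSS derived from the fitted concentration-response curve combining IC50 with minimum and maximum inhibition.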
# 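For drug sensitivity score (DSS), single drug with vehicle in this document: 384-well screen with five concentrations per compound and a luminescence read-out, DSS computed from the fitted dose-response curve combining IC50 with minimum and maximum inhibition.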
Compound,drug sensitivity score [1],drug sensitivity score [2],drug sensitivity score [3],drug sensitivity score [4],drug sensitivity score [5],drug sensitivity score [6]
O=C(Nc1cc(Oc2cc(F)c(NC(=O)C3(C(=O)Nc4ccc(F)cc4)CC3)cc2F)ccn1)C1CC1 [Altiratinib],8.3,5.3,4.3,9.5,4.6,11.1
CN1CCN(c2cc(C(=O)Nc3ccc4c(c3)-c3c(c(C(N)=O)nn3-c3ccc(F)cc3)CC4)c(Cl)cn2)CC1,9.2,4.8,6.7,8.7,6.1,9.5
O=C(NOCCO)c1ccc2cncn2c1Nc1ccc(I)cc1F,3.3,7.1,6.4,3,6.6,1.5
COc1cc(NS(C)(=O)=O)ccc1Nc1c2ccccc2nc2ccccc12 [Amsacrine],33.8,6.7,5.9,31.6,6.4,34.6
CC(C)(C)Cn1c(N)nc2ccc(-c3[nH]c(C(C)(C)C)nc3-c3ccc(F)cc3)nc21 [Ralimetinib],5.9,1.8,4.8,15.8,2.9,8.3
C=CC(=O)N1CCC[C@@H](n2nc(-c3ccc(Oc4ccccc4)cc3)c3c(N)ncnc32)C1 [Ibrutinib],0,0,0,0,0,0
COCCOc1cnc2ccn([C@H](C)c3nnc4c(F)cc(-c5cnn(C)c5)cn34)c(=O)c2c1,0,0,0,0,0,2.2
CN[C@@H](C)C(=O)N[C@H]1CN(C(=O)CC(C)C)CC[C@H]2CC[C@@H](C(=O)NC(c3ccccc3)c3ccccc3)N2C1=O,0,0,0,0,0.1,0
O=C(O)c1ccc2c(c1)nc(Nc1cccc(Cl)c1)c1ccncc12 [Silmitasertib],6.9,5.3,6.3,8.8,6.3,9.4
CN[C@@H]1C[C@H]2O[C@@](C)([C@@H]1OC)n1c3ccccc3c3c4c(c5c6ccccc6n2c5c31)C(=O)N[C@H]4O,22.4,26.2,26.6,25.7,26.4,27.8
Cc1c(Cn2c(C)nc3c(C(=O)O)cc(N4CCOCC4)cc32)cccc1C(F)(F)F,0,0,0,0,0,0.6
C[C@@]1(C(=O)Nc2ccc(F)nc2)CCCN1c1nc(Nc2cc(C3CC3)n[nH]2)c2cccn2n1,21.8,12.5,13.4,21.4,14.2,21.8
Cc1cc(C)c(CNC(=O)c2cc(-c3ccc(CN4CCOCC4)cc3)cc3c2cnn3C2CCCC2)c(=O)[nH]1,0.6,0,0,0.8,0,0
Nc1cc(C(F)(F)F)c(-c2cc(N3CCOCC3)nc(N3CCOCC3)n2)cn1 [Buparlisib],16.9,13,12.1,17.6,14,18.5
